# From paper PMC4336329 (PLoS ONE, 2015)
# In all, about 310,000 compounds went through this assay and about 2,200 (0.71%) showed an effect of 50% or more. The effect is printed as a negative number. The list shows a part of the results.
# Molecular target: human ether-à-go-go-related gene (hERG) potassium channel (human, UniProt Q12809)
# Assay: primary screen, population patch clamp on CHO cells stably expressing hERG
# human ether-à-go-go-related gene (hERG) potassium channel, sequence (Q12809 whole entry, looked up): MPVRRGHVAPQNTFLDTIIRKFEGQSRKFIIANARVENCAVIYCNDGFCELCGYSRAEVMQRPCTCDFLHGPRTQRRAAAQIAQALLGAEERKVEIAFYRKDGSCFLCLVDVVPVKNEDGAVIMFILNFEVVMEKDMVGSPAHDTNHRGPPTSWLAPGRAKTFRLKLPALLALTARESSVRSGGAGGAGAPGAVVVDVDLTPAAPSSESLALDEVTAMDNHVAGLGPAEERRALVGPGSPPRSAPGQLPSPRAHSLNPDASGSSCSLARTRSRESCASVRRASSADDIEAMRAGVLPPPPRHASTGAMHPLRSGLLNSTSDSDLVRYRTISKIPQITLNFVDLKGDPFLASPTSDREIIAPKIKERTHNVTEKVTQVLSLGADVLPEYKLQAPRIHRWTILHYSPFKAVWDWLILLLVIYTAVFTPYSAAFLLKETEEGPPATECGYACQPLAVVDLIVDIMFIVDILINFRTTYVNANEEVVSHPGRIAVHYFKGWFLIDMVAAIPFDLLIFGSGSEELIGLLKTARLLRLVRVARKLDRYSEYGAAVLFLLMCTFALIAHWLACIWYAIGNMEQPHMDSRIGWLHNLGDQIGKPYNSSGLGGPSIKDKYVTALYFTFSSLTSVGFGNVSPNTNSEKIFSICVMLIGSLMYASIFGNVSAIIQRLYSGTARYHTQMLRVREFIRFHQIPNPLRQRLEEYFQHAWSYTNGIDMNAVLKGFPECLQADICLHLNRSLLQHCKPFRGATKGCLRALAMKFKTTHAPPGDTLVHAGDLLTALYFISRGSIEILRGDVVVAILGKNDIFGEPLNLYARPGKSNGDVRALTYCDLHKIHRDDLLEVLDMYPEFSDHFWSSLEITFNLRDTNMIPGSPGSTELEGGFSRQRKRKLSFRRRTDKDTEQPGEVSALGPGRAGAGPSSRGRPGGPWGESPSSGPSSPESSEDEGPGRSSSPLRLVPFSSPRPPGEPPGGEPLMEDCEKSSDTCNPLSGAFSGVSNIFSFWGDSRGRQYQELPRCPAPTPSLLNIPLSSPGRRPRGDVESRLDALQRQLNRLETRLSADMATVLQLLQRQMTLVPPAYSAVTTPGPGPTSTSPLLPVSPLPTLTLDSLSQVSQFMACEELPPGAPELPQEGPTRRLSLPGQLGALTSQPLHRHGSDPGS
row,SMILES,"hERG current change (%, negative = inhibition) at 1uM [%]"
1,CCCCC(CC)CNC(=O)CCS(=O)(=O)c1cccc2nsnc12 (stereo not shown),12.2
2,CCOC(=O)c1c(C)[nH]c(N=Nc2ccc(OC)cc2)c1C,10.7
3,COc1cc2c(c(OC)c1)C(=O)OC(C)CCCC(=O)CCCCC2 (stereo not shown),15.3
4,COCCCNc1nc2c(-c3cccc(C)c3)nnn2c2ccc(Cl)cc12,13.3
5,Cc1nccc(-c2cc(-c3ccc(Cl)cc3Cl)no2)n1,8.1
6,Cc1cccc(NC(=O)[C@@H]2CCCN2C(=O)OC(C)(C)C)c1,13
7,COC(=O)c1cc(NS(=O)(=O)c2ccc(F)cc2)ccc1N1CCOCC1,30.9
8,Cl.c1csc(CNc2ccc3c(c2)OCCO3)c1,8.55
9,CSCCC(NC(=O)c1ccccc1Br)C(=O)NNC(=O)c1csc(N2CCOCC2)n1 (stereo not shown),2.9
10,CC1OC(OC2C(CO)OC(OC3C(CO)OC(O)C(O)C3O)C(O)C2O)C(O)C(O)C1N[C@@H]1C=C(CO)[C@@H](O)C(O)[C@H]1O (stereo partly shown),22.1
11,O=S(=O)(Nc1ccc2c(c1)nc1n2CCOC1)c1ccc(Cl)cc1,-1.24
12,Cc1cc(C)cc(NC(=O)CSc2nnc(Cc3cccn3C)n2-c2ccc(F)cc2)c1,9.47
13,Cc1cc(C(F)F)n2nc(C(=O)Nc3ccc(S(=O)(=O)N4CCCCCC4)cc3)nc2n1,5.81
14,Cc1cc(C)n(-c2ccc(C(=O)Nc3sccc3C(N)=O)cc2)n1,-6.94
15,O=c1cnnc(SCCc2ccccc2)[nH]1,-1.68
16,COc1ccc(C)cc1Nc1nnc(C)c(=O)[nH]1,12.1
17,O=C(Nc1ccc(S(=O)(=O)Nc2ccccc2F)cc1)N1CCCCC1,15.1
18,Cc1ccc(-n2c(C)cc(C(=O)COC(=O)c3c(C)noc3C)c2C)cc1,10.9
19,Cc1cccc(NC(=O)C2C3C=CC(O3)C2C(=O)O)c1 (stereo not shown),8.1
20,CCN(CC)C(=O)C1=C(C)Nc2ncnn2C1c1cccnc1 (stereo not shown),9.03

row,SMILES,"hERG current change (%, negative = inhibition) at 1uM [%]"
1,COc1ccccc1NC(=O)OC(C)c1ccc(Cl)cc1 (stereo not shown),-2.34
2,Cc1cc(C)c(C(=O)CN2CCOCC2)c(C)c1.Cl,7.67
3,Fc1cccc(Nc2ncnc3sccc23)c1,14.2
4,Cn1c(CCN2CCCCCC2)nc2cc(NC(=O)Nc3ccccc3)ccc21,-12.2
5,CSc1ccccc1C(=O)NCCOc1cccc(C)c1,19.4
6,CCc1ccc(NC(=O)Nc2ccon2)cc1,12.2
7,Cc1cccc(C)c1NC(=S)N1CCOCC1,14.4
8,O=C(NC1CCCCCC1)c1ccc(=O)n(Cc2ccccc2)n1,10.3
9,O=C(c1cccc(S(=O)(=O)N2CCCC2)c1)N(Cc1ccco1)C1CCS(=O)(=O)C1 (stereo not shown),6.99
10,NS(=O)(=O)c1ccc(NC(=O)C2C3C=CC(C3)C2C(=O)O)cc1 (stereo not shown),19.1
11,O=P(O)(CCc1ccccc1)CN1CCCCC1,8.63
12,COc1ccccc1OCc1nc2ccccc2s1,11.8
13,O=C(CCC(=O)N1CCCCC1)Nc1ccc(Cl)c(Cl)c1,11.1
14,CCCCCCC(=O)c1c([O-])n(-c2ccc(OC)cc2)c(=O)[nH]c1=O.C[NH+](C)C,12.3
15,COCCN(CCOC)C(=O)c1ccc(NS(=O)(=O)c2ccc3[nH]c(=O)[nH]c3c2)cc1,20
16,CC1COc2ccccc2N1C(=O)c1ccccc1Cl (stereo not shown),2.72
17,CCn1c(SCC(=O)N2CCCC(C)C2)nc2c1c(=O)n(C)c(=O)n2C (stereo not shown),12.4
18,O=[N+]([O-])c1ccccc1/C=C/CN1CCN(Cc2ccc3c(c2)OCO3)CC1,3.7
19,Cc1ccccc1CN1CCN(CCCc2ccccc2)C(CCO)C1 (stereo not shown),-38
20,CCOc1ccccc1/C=C/c1nc2ccccc2[nH]c1=O,14.7

row,SMILES,"hERG current change (%, negative = inhibition) at 1uM [%]"
1,FC(F)(F)c1cccc(Sc2nc(-c3ccccc3)nnc2C(F)(F)F)c1,10.6
2,CC(NC(=O)[C@H](C)NC(=O)c1ccco1)c1ccc(S(N)(=O)=O)cc1 (stereo partly shown),15.5
3,CN(C)c1ccc(/C=C/C(=O)c2cc(Cl)ccc2O)cc1,9.09
4,C=CC[C@@H](C)CC(=O)C(CCCN=[N+]=[N-])SOOc1ccccc1 (stereo partly shown),11.2
5,Cc1ccc(NC(=O)c2cc(=O)[nH]c3ccccc23)cc1,18.6
6,CC(C)(C)OC(=O)N1CCN(C(=O)c2[nH]cnc2C(=O)NCc2ccccc2)CC1,3.57
7,O=C(NCc1ccc(F)cc1)c1ccncc1,12.9
8,COCCCn1c(SCC(=O)N2CCOCC2)nnc1-c1ccco1,16.1
9,Cc1ccccc1-c1nc2sc(C)c(C)c2c(=O)o1,15.7
10,CCOc1cccc(-c2c(C(=O)N/N=C/c3ccoc3)nnn2-c2nonc2N)c1,20.1
11,COc1nc(Nc2cccc([N+](=O)[O-])c2)nc(OC)n1,11.8
12,Cc1ccc(C(=O)N/C(=C\c2ccc(-c3cc(Cl)ccc3Cl)o2)C(=O)NCc2cccnc2)cc1,5.35
13,COc1ccc(OC)c(NC(=O)C2CCN(S(C)(=O)=O)CC2)c1,21.3
14,O=C(COc1ccccc1)N1CCN(c2ccccc2)CC1,5.65
15,O=C1C(=O)N(CCN2CCOCC2)C(c2ccccn2)/C1=C(/O)c1ccc(F)cc1 (stereo not shown),-3.35
16,Cc1cccc(-n2nnnc2SC(C)C(=O)NCCC2=CCCCC2)c1 (stereo not shown),3.1
17,CC(=O)Nc1ccc(NC(=O)CCC(=O)OCC(=O)c2ccc(C)c([N+](=O)[O-])c2)cc1,10.8
18,O=C(Nc1ccccc1)N(CCCN1CCOCC1)Cc1ccccc1F,-3.99
